# Source: the supplement of paper PMC4604168 (melanoma cell lines)
# The other results are listed elsewhere or left out. Many values rest on one well or one pass, so single values are uncertain.
# System: UACC257
# Assay: cell count relative to DMSO control; melanoma cells; higher = more viable cells
# Details: library dose: standard library concentration; 72 h
# 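Further: cells treated in 1,536-well plates, then fixed and DAPI-stained, with nuclei counted from automated high-throughput microscope images.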
row,Structure (SMILES),cell count
1,"O=C(Nc1cc(C(F)(F)F)cc(C(F)(F)F)c1)c1cc(Cl)ccc1O + Nc1ncn([C@H]2C[C@H](O)[C@@H](CO)O2)c(=O)n1 [decitabine] (first compound 0.08 µM, partner dose 0.5 µM)",119%
2,"O=C(O)[C@@H]1[O][Sb](=[O])([O][Sb]2(=[O])[O][C@H]([C@H](O)CO)[C@H](O)[C@H](C(=O)O)[O]2)[O][C@H]([C@H](O)CO)[C@@H]1O (stereo partly specified) [stibogluconate] + N#Cc1c(O)c2c(-c3ccc(-c4ccccc4O)cc3)csc2[nH]c1=O [A769662] (first compound 10 µM, partner dose 10 µM)",114%
3,"O=C(Nc1ccccc1)c1cc([N+](=O)[O-])ccc1Cl + Cc1cc([N+](=O)[O-])ccc1NS(=O)(=O)c1cc(Cl)ccc1Cl [FH535] (first compound 10 µM, partner dose 5 µM)",69.2%
4,"O=C(Nc1cc(C(F)(F)F)cc(C(F)(F)F)c1)c1cc(Cl)ccc1O + Nc1ccn([C@@H]2O[C@H](CO)[C@@H](O)C2(F)F)c(=O)n1 [gemcitabine] (first compound 0.08 µM, partner dose 0.002 µM)",100%
5,"O=C(Nc1cc(C(F)(F)F)cc(C(F)(F)F)c1)c1cc(Cl)ccc1O + C=CCn1c(=O)c2cnc(Nc3ccc(N4CCN(C)CC4)cc3)nc2n1-c1cccc(C(C)(C)O)n1 [MK1775] (first compound 0.08 µM, partner dose 0.1 µM)",82.5%
6,"O=C(Nc1cc(C(F)(F)F)cc(C(F)(F)F)c1)c1cc(Cl)ccc1O + CCCCCCCCCCCC1=C(O)C(=O)C=C(O)C1=O [Embelin] (first compound 0.08 µM, partner dose 6 µM)",77.4%
7,"Cn1nnc2c(C(N)=O)ncn2c1=O [temozolomide] + CCN(CC)CCCCNc1ncc2cc(-c3cc(OC)cc(OC)c3)c(NC(=O)NC(C)(C)C)nc2n1 [PD173074] (first compound 10 µM, partner dose 0.5 µM)",120%
8,"O=C(O)[C@@H]1[O][Sb](=[O])([O][Sb]2(=[O])[O][C@H]([C@H](O)CO)[C@H](O)[C@H](C(=O)O)[O]2)[O][C@H]([C@H](O)CO)[C@@H]1O (stereo partly specified) [stibogluconate] + Nc1ncn([C@H]2C[C@H](O)[C@@H](CO)O2)c(=O)n1 [decitabine] (first compound 10 µM, partner dose 0.5 µM)",107%
9,"O=C(O)c1ccc2c(c1)nc(Nc1cccc(Cl)c1)c1ccncc12 + C=CCn1c(=O)c2cnc(Nc3ccc(N4CCN(C)CC4)cc3)nc2n1-c1cccc(C(C)(C)O)n1 [MK1775] (first compound 2 µM, partner dose 0.1 µM)",64.4%
10,"O=C(O)c1ccc2c(c1)nc(Nc1cccc(Cl)c1)c1ccncc12 + COc1cc(N2CCC(N3CCN(C)CC3)CC2)ccc1Nc1ncc(Cl)c(Nc2ccccc2S(=O)(=O)C(C)C)n1 [NVP-TAE684] (first compound 2 µM, partner dose 0.4 µM)",78.2%
11,"O=C(O)c1ccc2c(c1)nc(Nc1cccc(Cl)c1)c1ccncc12 + Cc1cc([N+](=O)[O-])ccc1NS(=O)(=O)c1cc(Cl)ccc1Cl [FH535] (first compound 2 µM, partner dose 5 µM)",71%
12,"O=C(Nc1cc(C(F)(F)F)cc(C(F)(F)F)c1)c1cc(Cl)ccc1O + Cn1c(Nc2ccc(C(F)(F)F)cc2)nc2cc(Oc3ccnc(-c4ncc(C(F)(F)F)[nH]4)c3)ccc21 [CHIR265] (first compound 0.08 µM, partner dose 0.4 µM)",83.1%
13,"O=C(O)[C@@H]1[O][Sb](=[O])([O][Sb]2(=[O])[O][C@H]([C@H](O)CO)[C@H](O)[C@H](C(=O)O)[O]2)[O][C@H]([C@H](O)CO)[C@@H]1O (stereo partly specified) [stibogluconate] + COc1cc2ncnc(Nc3ccc(Oc4ccccc4)cc3)c2cc1OC [SrcI1] (first compound 10 µM, partner dose 10 µM)",85.5%
14,"O=C(O)c1ccc2c(c1)nc(Nc1cccc(Cl)c1)c1ccncc12 + C#Cc1cccc(Nc2ncnc3cc(OCCOC)c(OCCOC)cc23)c1 [erlotinib] (first compound 2 µM, partner dose 4 µM)",80.2%
15,"Cc1cc(N2CCOCC2)cc2[nH]c(-c3c(NC[C@@H](O)c4cccc(Cl)c4)cc[nH]c3=O)nc12 + Oc1cc(-c2nc(-c3ccccc3)[nH]c2-c2ccncc2)ccc1Cl [L779450] (first compound 1 µM, partner dose 1 µM)",91.3%
16,"O=C(O)[C@@H]1[O][Sb](=[O])([O][Sb]2(=[O])[O][C@H]([C@H](O)CO)[C@H](O)[C@H](C(=O)O)[O]2)[O][C@H]([C@H](O)CO)[C@@H]1O (stereo partly specified) [stibogluconate] + O=S(=O)(c1ccccc1)N(CC(F)(F)F)c1ccc(C(O)(C(F)(F)F)C(F)(F)F)cc1 [T0901317] (first compound 10 µM, partner dose 7 µM)",82.9%

row,Structure (SMILES),cell count
1,"O=C(O)[C@@H]1[O][Sb](=[O])([O][Sb]2(=[O])[O][C@H]([C@H](O)CO)[C@H](O)[C@H](C(=O)O)[O]2)[O][C@H]([C@H](O)CO)[C@@H]1O (stereo partly specified) [stibogluconate] + Cn1cncc1[C@@](N)(c1ccc(Cl)cc1)c1ccc2c(c1)c(-c1cccc(Cl)c1)cc(=O)n2C [tipifarnib] (first compound 10 µM, partner dose 0.05 µM)",107%
2,"O=C(Nc1cc(C(F)(F)F)cc(C(F)(F)F)c1)c1cc(Cl)ccc1O + COc1ccc(COc2ccc(Cc3cnc(N)nc3N)cc2OC)cc1 [GW2580] (first compound 0.08 µM, partner dose 5 µM)",78.5%
3,"O=C(Nc1cc(C(F)(F)F)cc(C(F)(F)F)c1)c1cc(Cl)ccc1O + Cc1cc([N+](=O)[O-])ccc1NS(=O)(=O)c1cc(Cl)ccc1Cl [FH535] (first compound 0.08 µM, partner dose 5 µM)",67.6%
4,"O=C(Nc1cc(C(F)(F)F)cc(C(F)(F)F)c1)c1cc(Cl)ccc1O + Cn1cc(/C=C2\C(=O)Nc3cccnc32)c2ccccc21 [GW441756] (first compound 0.08 µM, partner dose 2 µM)",91.4%
5,"O=C(O)c1ccc2c(c1)nc(Nc1cccc(Cl)c1)c1ccncc12 + CCc1ccc(CCOc2ccc(CC3SC(=O)NC3=O)cc2)nc1 [pioglitazone] (first compound 2 µM, partner dose 10 µM)",82%
6,"Cc1cc(N2CCOCC2)cc2[nH]c(-c3c(NC[C@@H](O)c4cccc(Cl)c4)cc[nH]c3=O)nc12 + CC(C)CCN1c2nc(Nc3cc(F)c(O)c(F)c3)ncc2N(C)C(=O)C1C [BID1870] (first compound 1 µM, partner dose 1 µM)",98.9%
7,"O=C(Nc1ccccc1)c1cc([N+](=O)[O-])ccc1Cl + COc1ccc(-c2ccc3c(N4CCOCC4)nc(N4C[C@@H](C)O[C@@H](C)C4)nc3n2)cc1CO [KU0063794] (first compound 10 µM, partner dose 0.1 µM)",91.3%
8,"O=C(O)c1ccc2c(c1)nc(Nc1cccc(Cl)c1)c1ccncc12 + O=c1cc(-c2cccc3c2Sc2ccccc2S3)oc(N2CCOCC2)c1 [KU55933] (first compound 2 µM, partner dose 5 µM)",79.8%
9,"O=C(O)c1ccc2c(c1)nc(Nc1cccc(Cl)c1)c1ccncc12 + c1cc(-c2cnn3cc(-c4ccc(OCCN5CCCCC5)cc4)cnc23)ccn1 [Dorsomorphin] (first compound 2 µM, partner dose 2 µM)",82.3%
10,"Cn1nnc2c(C(N)=O)ncn2c1=O [temozolomide] + Cc1cc([N+](=O)[O-])ccc1NS(=O)(=O)c1cc(Cl)ccc1Cl [FH535] (first compound 10 µM, partner dose 5 µM)",67%
11,"O=C(Nc1cc(C(F)(F)F)cc(C(F)(F)F)c1)c1cc(Cl)ccc1O + COc1ccc2c(c1)CCC1C2CCC2(C)C(NCCCCCCN3C(=O)C=CC3=O)CCC12 [U73122] (first compound 0.08 µM, partner dose 2 µM)",81.8%
12,"Cc1cc(N2CCOCC2)cc2[nH]c(-c3c(NC[C@@H](O)c4cccc(Cl)c4)cc[nH]c3=O)nc12 + Oc1nc(-c2ccc(C(F)(F)F)cc2)nc2c1CSCC2 [XAV939] (first compound 1 µM, partner dose 10 µM)",72.1%
13,"O=C(Nc1cc(C(F)(F)F)cc(C(F)(F)F)c1)c1cc(Cl)ccc1O + CC(=O)O[C@@]12CO[C@@H]1C[C@H](O)[C@@]1(C)C(=O)[C@H](O)C3=C(C)[C@@H](OC(=O)[C@H](O)[C@@H](NC(=O)OC(C)(C)C)c4ccccc4)C[C@@](O)([C@@H](OC(=O)c4ccccc4)[C@H]21)C3(C)C [Docetaxel] (first compound 0.08 µM, partner dose 0.0005 µM)",77.5%
14,"O=C(Nc1ccccc1)c1cc([N+](=O)[O-])ccc1Cl + O=S(=O)(c1ccccc1)N(CC(F)(F)F)c1ccc(C(O)(C(F)(F)F)C(F)(F)F)cc1 [T0901317] (first compound 10 µM, partner dose 7 µM)",67.8%
15,"O=C(Nc1cc(C(F)(F)F)cc(C(F)(F)F)c1)c1cc(Cl)ccc1O + CCc1ccc(CCOc2ccc(CC3SC(=O)NC3=O)cc2)nc1 [pioglitazone] (first compound 0.08 µM, partner dose 10 µM)",97.2%
